Test results taken from PubChem BioAssay AID504845 (National Center for Advancing Translational Sciences (NCATS), 2011).
Among all 390,000 compounds or so, about 150 (0.038%) were called active. The shares of active, inactive and inconclusive entries below differ from those in the screen. Calls follow the shape of the dose curve; as a rule, active = well fitted inhibition curve with a large enough effect; inconclusive = small, poorly fitted or top-dose-only effect; inactive = no such curve, though single readings can be large or run the other way. Potencies beside an inconclusive call are fits to weak or partial responses and may not hold up.

biological target: Regulator of G-protein signaling 4 (Homo sapiens) (UniProt P49798); test: Inhibitors of Regulator of G Protein Signaling (RGS) 4: qHTS; settings: Transcreener GDP fluorescence polarization, RGS4-accelerated GTP hydrolysis; series mostly up to 114 µM; activity change, negative = inhibition: at the top concentration; also: nearly all actives have a fitted effect of over 75% in size
Procedure, shortened: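 MLSMR compounds (23 nl, pin-transferred) preincubated 10 min at room temperature with a 500nM (2x) first reagent, then RGS4 at 900nM (2x) plus Transcreener GDP mix added; fluorescence polarization (620/688 nm) read before and after 90 min at 30 °C.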
% is scaled to controls: 0 for no effect and ±100 for the full control effect; potency is read from the fitted curve at half-maximal effect; tags tell the direction and shape of the fitted curve.

Sequence of UniProt P49798 (P49798 whole entry, looked up): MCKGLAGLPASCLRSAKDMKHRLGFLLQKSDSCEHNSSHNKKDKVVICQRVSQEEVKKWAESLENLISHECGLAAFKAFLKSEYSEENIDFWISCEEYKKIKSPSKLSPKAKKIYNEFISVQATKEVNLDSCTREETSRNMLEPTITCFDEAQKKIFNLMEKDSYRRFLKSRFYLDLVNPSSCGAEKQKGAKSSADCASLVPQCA

**Q.** Which “activity change, negative = inhibition” value does the source give for `Cc1ccccc1CN1CCN(C(C)C(=O)NCc2ccccc2)CC1` (centres undefined) here?
**A.** Its value is inactive: 0.913%.

**Q.** `Fc1ccc(C2C3=C(Nc4ncnn42)c2ccccc2OC3c2ccncc2)cc1` (centres undefined) was tested. Which Potency did it give?
**A.** Its Potency is inconclusive: 89.1 µM [inhibitor, single point].

**Q.** `CCOC(=O)C1=C(O)/C(=C/c2ccc(OCC(=O)O)c(OC)c2)SC1=Nc1ccc(OCC)cc1` was tested. Which “activity change, negative = inhibition” value did it give?
**A.** Its value is inactive: -34.1%.

**Q.** `CC1(C)C2CC[C@]1(C)C(=O)N(CCCCN1CCN(c3ccccn3)CC1)C2=O` was tested. Which “activity change, negative = inhibition” value did it give?
**A.** The value was inactive: -15.6%.

**Q.** For `O=C(CCN1CCCCC1)NNC(=S)NC(=O)c1ccc(Br)cc1`, which Potency is on record?
**A.** Its Potency is inconclusive: 50.1 µM [inhibitor, partial curve, poor fit].

**Q.** `Cc1cccn2c(=O)c3cc(C#N)c(=O)n(-c4nnc(SCc5ccc(Cl)cc5)s4)c3nc12` was tested. Which Potency did it give?
**A.** The Potency was inconclusive: 50.1 µM [inhibitor, partial curve, poor fit].

**Q.** For `CCOC(=O)c1nc(NCc2ccc(Cl)cc2)c2c(C)noc2n1`, which “activity change, negative = inhibition” value is on record?
**A.** Its value is inactive: 16.2%.

**Q.** How did the “activity change, negative = inhibition” value turn out when `Cc1oc(-c2ccccc2F)nc1CN1CCC(C(=O)NCc2cccs2)CC1` was run?
**A.** Its value is inactive: -35%.

**Q.** With `CC(C)N(Cc1cnn(C)c1)Cc1nc(COc2ccccc2)no1` as the molecule, how does the Potency read?
**A.** Its Potency is inconclusive: 17.8 µM [inhibitor, full curve, poor fit].

**Q.** `Cc1ccc(C(=O)OC(C)C(=O)NC2CCCCC2C)s1` (centres undefined) was tested. Which “activity change, negative = inhibition” value did it give?
**A.** The value was inactive: -10.5%.

**Q.** For `CN(C)c1ccc(NC(=O)N2CCOCC2)cc1`, which Potency is on record?
**A.** Its Potency is inconclusive: 31.6 µM [inhibitor, full curve, poor fit].

**Q.** `CCOCCCn1c(=S)[nH]c2cc(C(=O)NCCCN(CC)CC)ccc2c1=O` was tested. Which “activity change, negative = inhibition” value did it give?
**A.** The value was inactive: -18.8%.

**Q.** With `COc1cc(C)c(/C=C/C(C)=C/C=C/C(C)=C/C(=O)O)c(C)c1C` as the molecule, how does the “activity change, negative = inhibition” value read?
**A.** The value was inactive: -7.85%.

**Q.** For `COC(=O)c1sc(N2C(=O)C(O)=C(C(=O)c3ccc(C)o3)C2c2ccc(OC)c(OC)c2)nc1C` (centres undefined), which Potency is on record?
**A.** The Potency was inconclusive: 89.1 µM [inhibitor, single point].

**Q.** For `NC(=O)CCC(=O)N1CCCC(C(=O)c2ccc3c4c(cccc24)CC3)C1` (centres undefined), which Potency is on record?
**A.** The Potency was inconclusive: 50.1 µM [inhibitor, partial curve, poor fit].

**Q.** Which Potency does the source give for `Cn1nc(C(C)(C)C)c([N+](=O)[O-])c1C(=O)NCCO` here?
**A.** The Potency was inconclusive: 31.6 µM [inhibitor, full curve, poor fit].

**Q.** How did the “activity change, negative = inhibition” value turn out when `O=[N+]([O-])c1ccc(N=Nc2c(Cl)cc(O)cc2Cl)cc1` was run?
**A.** The value was inactive: 2.45%.

**Q.** Which “activity change, negative = inhibition” value does the source give for `Cc1nc([N+](=O)[O-])c(Sc2nc3ccccc3[nH]2)n1Cc1ccccc1` here?
**A.** The value was inactive: 7.29%.

**Q.** For `Cc1cc(OCC(=O)Nn2cnnc2)c(C)cc1Br`, which “activity change, negative = inhibition” value is on record?
**A.** The value was inactive: 23.6%.

**Q.** With `COc1ccc(Cl)cc1C(Nc1cccnc1)c1ccc2cccnc2c1O` (centres undefined) as the molecule, how does the Potency read?
**A.** Its Potency is inconclusive: 28.2 µM [inhibitor, full curve, poor fit].

**Q.** How did the Potency turn out when `CCOC(=O)c1ccc(S(=O)(=O)N2CCC(C(=O)N3CCN(c4ccccc4OC)CC3)CC2)cc1` was run?
**A.** The Potency was inconclusive: 100 µM [inhibitor, single point].

**Q.** For `CSc1nc2n(n1)C(c1cc(Br)ccc1F)C(C(=O)N(C)C)=C(C)N2` (centres undefined), which “activity change, negative = inhibition” value is on record?
**A.** The value was inactive: -38.7%.

**Q.** How did the “activity change, negative = inhibition” value turn out when `S=c1[nH]nc(C2CCCCC2)n1/N=C/c1ccc(Cl)cc1` was run?
**A.** Its value is inactive: -16.3% [at 56.9 µM].

**Q.** `O=C(Nc1ccc(N2CCOCC2)cc1N1CCOCC1)c1ccco1` was tested. Which Potency did it give?
**A.** The Potency was inconclusive: 79.4 µM [inhibitor, partial curve, poor fit].

**Q.** With `O=C(/C=C/c1cccs1)N1CCCC1` as the molecule, how does the “activity change, negative = inhibition” value read?
**A.** The value was inactive: -1.57%.

**Q.** `CC(/C=C1\SC(=S)N(CCC(=O)Nc2cccc(C(=O)O)c2)C1=O)=C\c1ccccc1` was tested. Which Potency did it give?
**A.** The Potency was inconclusive: 89.1 µM [inhibitor, single point].

**Q.** How did the Potency turn out when `C=C(C)C(=O)Nc1cccc(C2=NOC3(C2)C[C@H](C(N)=O)N(C(=O)CC#N)C3)c1` (some centres undefined) was run?
**A.** The Potency was inconclusive: 28.2 µM [inhibitor, full curve, poor fit].

**Q.** Which Potency does the source give for `O=C1C=C(Nc2cccc3cccnc23)c2ccccc2C1=O` here?
**A.** Its Potency is inconclusive: 70.8 µM [inhibitor, partial curve, poor fit].

**Q.** `CCCN(CCC)c1nc2c(C)cccn2c(=O)c1/C=C1/SC(=S)N(Cc2ccco2)C1=O` was tested. Which Potency did it give?
**A.** The Potency was inconclusive: 89.1 µM [inhibitor, partial curve, poor fit].

**Q.** Which Potency does the source give for `CC(=O)N1CCN(c2ccc(NC(=O)c3ccc(OCc4ccccc4)cc3)cc2)CC1` here?
**A.** Its Potency is inconclusive: 31.6 µM [inhibitor, full curve, poor fit].

**Q.** For `COc1cc(C2c3cc4c(cc3OC(NCCc3ccccc3)C2C)OCO4)cc(OC)c1OC` (centres undefined), which “activity change, negative = inhibition” value is on record?
**A.** Its value is inactive: -9.55%.

**Q.** `CCCCn1c(N)c(N(CCOC)C(=O)c2ccc(-c3ccc([N+](=O)[O-])cc3)o2)c(=O)[nH]c1=O` was tested. Which “activity change, negative = inhibition” value did it give?
**A.** Its value is inactive: -7.22%.

**Q.** `O=c1oc2cc([N+](=O)[O-])ccc2nc1/C=C(\O)c1cccc(Br)c1` was tested. Which “activity change, negative = inhibition” value did it give?
**A.** Its value is inactive: 3.83%.

**Q.** `O=C1S/C(=C\C=C\c2ccco2)C(=O)N1c1ccccc1` was tested. Which Potency did it give?
**A.** Its Potency is inconclusive: 79.4 µM [inhibitor, partial curve, poor fit].

**Q.** For `O=C(Cn1ncc2c3ccccc3n(Cc3cccc(Cl)c3)c2c1=O)Nc1ccc(F)cc1F`, which “activity change, negative = inhibition” value is on record?
**A.** Its value is inactive: 10.5%.

**Q.** With `Cc1ccccc1Cn1cc(NC(=O)COc2ccccc2)cn1` as the molecule, how does the Potency read?
**A.** The Potency was inconclusive: 89.1 µM [inhibitor, single point].

**Q.** How did the Potency turn out when `Cc1cccc(C)c1NC(=O)C(NS(=O)(=O)c1cccs1)c1ccccc1` (centres undefined) was run?
**A.** The Potency was inconclusive: 70.8 µM [inhibitor, single point].

**Q.** Which “activity change, negative = inhibition” value does the source give for `Cc1cc(NC(=O)Nc2ccc(F)c(Cl)c2)no1` here?
**A.** Its value is inactive: 15.1%.

**Q.** `O=C1C=C(c2c(O)ccc3ccccc23)c2ccccc2C1=O` was tested. Which Potency did it give?
**A.** Its Potency is inconclusive: 50.1 µM [inhibitor, partial curve, poor fit].

**Q.** Which Potency does the source give for `COc1ccc(C2CC(=O)N3CN(c4ccccc4F)CSC3=C2C#N)cc1OC` (centres undefined) here?
**A.** The Potency was inconclusive: 31.6 µM [inhibitor, full curve, poor fit].

**Q.** For `COc1ccccc1C=NN=Cc1ccccc1OC`, which Potency is on record?
**A.** Its Potency is inconclusive: 100 µM [inhibitor, partial curve, poor fit].

**Q.** With `OC[C@H]1O[C@@H](n2cnc3c(N[C@H]4C[C@H]5CC[C@@H]4C5)ncnc32)[C@H](O)[C@@H]1O` as the molecule, how does the Potency read?
**A.** The Potency was inconclusive: 23.8 µM [inhibitor, partial curve, poor fit].

**Q.** Which Potency does the source give for `COc1ccc(Cl)cc1C(=O)Nc1ccc(Br)c(C)n1` here?
**A.** Its Potency is inconclusive: 28.2 µM [inhibitor, full curve, poor fit].

**Q.** How did the Potency turn out when `CC(=O)N[C@@H](CSC/C=C(\C)CCC=C(C)C)C(=O)O` was run?
**A.** Its Potency is inconclusive: 9.47 µM [inhibitor, partial curve, poor fit].
